# In the supplement of paper PMC10126150:
# Values marked as one replicate rest on one cluster of the flow cell; about a third of the high ones do not repeat.
# System: ATP
# Test: switch fluorescence ratio, 500 uM ATP over buffer (Cy3 cluster intensity, sum of 5 cycles each) (fold (ratio)); higher = stronger signal-on switching upon ATP binding; sequences stand for … in TCGTCGGCAGCGTCAGATGTGTATAAGAGACAGTTTTTTTTTTTTTTTTTTTTTTTTT…TC
# Conditions: aptamer strand: ATP DNA aptamer (quencher-CACCTGGGGGAGTATTGCGGAGGAAGG + anchor), 100 nM annealed; ATP concentration: 500 uM; one replicate
# Summary of the method: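 Cy3-labelled switching-strand clusters on a modified Illumina MiSeq flow-cell were annealed to 100 nM quencher-labelled ATP aptamer, imaged in selection buffer, then imaged after 15 min with 500 uM ATP at 22 °C. Five buffer/ATP cycles ran, with NaOH stripping and re-annealing between them. The fluorescence ratio is summed target-cycle over summed buffer-cycle Cy3 intensity per cluster, averaged per switch-domain sequence. Clusters outside 100-1000 RFU were excluded.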
# 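Also: ATP exposure 15 min at 22 °C before imaging.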
row,Sequence,switch fluorescence ratio
1,TGAGTCAGGC,0.888
2,TGAGTCAGTC,0.974
3,TGAGTCTCCT,1.05
4,TGAGTTAG,1.01
5,TGAGTTTAGC,1
6,TGAGTTTGAT,1.02
7,TGATAAAATG,1
8,TGATACGGGC,1.07
9,TGATAGAGAG,1.04
10,TGATAGCGTT,1.03
11,TGATATACAC,1.05
12,TGATATTTAT,1.01
13,TGATATTTGG,1
14,TGATCAGCTG,0.99
15,TGATCATTT,1.01
16,TGATCCAGAT,0.959
17,TGATCGACCA,0.987
18,TGATCGCGAC,1.05
19,TGATCGTCAG,0.99
20,TGATCTGACG,1
21,TGATCTGGAG,0.977
22,TGATGAACAC,1
23,TGATGCGGTA,0.999
24,TGATGGAAC,1.01
25,TGATGGCTGG,0.999
26,TGATGGTGTG,0.946

row,Sequence,switch fluorescence ratio
1,TGATGTGCTT,1.01
2,TGATGTTGAG,0.999
3,TGATTACATG,0.986
4,TGATTAGTTA,1.04
5,TGATTATATT,1.01
6,TGATTCATAA,1.01
7,TGATTCGCAA,3.74
8,TGATTCGGAC,1.02
9,TGATTGATGG,0.957
10,TGATTTATGC,0.955
11,TGCAAACAAG,0.935
12,TGCAAACGCT,1.09
13,TGCAAAGCAC,0.986
14,TGCAACGC,1
15,TGCAACGGCA,0.97
16,TGCAACTTAA,1.02
17,TGCAAGATT,2.65
18,TGCAAGTATC,1.41
19,TGCAATGGTA,1.05
20,TGCACATCCA,1.04
21,TGCACATTAG,1.06
22,TGCACCACCG,1.16
23,TGCACGCGAC,1.58
24,TGCACTCTGT,0.979
25,TGCAGAAGTA,0.982
26,TGCAGGGGGA,0.998

row,Sequence,switch fluorescence ratio
1,TGCAGTTCTG,1.04
2,TGCATACTTA,1.1
3,TGCATAGCAC,1.02
4,TGCATATGGA,0.956
5,TGCATCAATT,1
6,TGCATCTTAG,1.01
7,TGCATGAACG,1.02
8,TGCATGTGCC,1.01
9,TGCATTAGCA,1
10,TGCATTTAGA,0.984
11,TGCCAAGAGT,1.05
12,TGCCAGATAC,2
13,TGCCAGCGAA,1
14,TGCCATACAA,1.02
15,TGCCATCGCT,0.98
16,TGCCATTCGC,0.955
17,TGCCCAGGCG,2.49
18,TGCCCCGTTT,1.17
19,TGCCCTTTTG,1.06
20,TGCCGAGTGA,1.01
21,TGCCGCCCTA,1.01
22,TGCCGGCGTC,1.02
23,TGCCGGTATG,0.96
24,TGCCGTGCGC,0.947
25,TGCCTAAGGG,1.09
